Out of some 52,000 compounds screened, about 1,700 (3.3%) were called active. Rule as the data show it: active = survival mostly below about 52% (no sharp cut-off); inactive = mostly above about 56%. This is one part of the list.

This assay has as its system Wild type. Briefly: growth inhibition of S. aureus wild type versus tarO mutant, primary screen, teichoic acid synthesis inhibitors, RN4220, OD600 (AID 463173). The conditions noted are these: S. aureus RN4220 wild type/DeltatarO growth, OD600, 18 h, active compounds read low, screened at 18.75 µg/mL (by protocol).
In the case of `CCN(CC)c1ccc2ccc(=O)oc2c1`, the survival is inactive: 112%.

For `Cc1ccc(S(=O)(=O)N2CCCc3cc(NS(=O)(=O)c4cc(F)ccc4F)ccc32)cc1`, the survival was inactive: 128%.

Turning to `CCOC(=O)c1ccc(N2C(=O)c3n[nH]c(-c4ccco4)c3C2c2ccc(OCC)cc2)cc1` (stereo unspecified), the survival is inactive: 64%.

Consider `CCCC(=O)Nc1cc(C(=O)NCc2ccccc2)ccc1S(=O)(=O)c1ccc(Cl)cc1`, for which the survival is inactive: 78%.

For `O=C(CSc1nc2c(oc3ccccc32)c(=O)n1-c1ccccc1)Nc1ccccc1F`, the survival was inactive: 88%.

Consider `CC(C)c1ccc(NC(=O)CC2NCCNC2=O)cc1` (stereo unspecified), for which the survival was inactive: 71%.

Consider `O=C(Cn1cc(S(=O)(=O)N2CCCC2)c(S(=O)(=O)N2CCCC2)c1)Nc1ccccc1`, for which the survival was inactive: 68%.

On to `O=C(Nc1cccc(NC(=O)c2ccccc2F)c1)c1ccccc1`, for which the survival was inactive: 92%.

With `Cn1c(=O)c(=O)n(C)c2cc(S(=O)(=O)N3CCN(c4ccc(F)cc4)CC3)ccc21`, the survival is inactive: 132%.

Take `COc1cc(C2CC(=O)c3cnc(N4CCN(CCO)CC4)nc3C2)cc(OC)c1OC` (stereo unspecified): the survival is inactive: 74%.

As to `Cc1ccc(CN2CCCN(CC(=O)Nc3ccc(C)cc3C)S2(=O)=O)cc1`, the survival was inactive: 85%.

On to `CSc1ccc(CCNC(=O)Cn2ccc3cc(S(=O)(=O)N4CCCCCC4)ccc32)cc1`, for which the survival was inactive: 136%.

Turning to `O=C(Nc1nc2n(n1)C(c1ccc(F)cc1)C=C(c1ccccc1)N2)c1ccco1` (stereo unspecified), the survival was inactive: 31%.

Take `O=c1c(-c2cc(-c3ccccc3)nc3c2COc2ccc(Cl)cc2-3)coc2ccc(F)cc12`: the survival was inactive: 65%.

For the compound `Cc1c(Cl)cccc1NC(=O)c1ccc2c(c1)CCN2S(=O)(=O)c1ccccc1`, the survival was inactive: 81%.

Regarding `CCCCSc1nnc2c(n1)OC(c1ccc(Br)s1)N(C(C)=O)c1ccccc1-2` (stereo unspecified), the survival is inactive: 61%.

In the case of `CN(C)c1ccc(C(CNC(=O)c2ccccc2C(F)(F)F)N2CCOCC2)cc1` (stereo unspecified), the survival was inactive: 79%.

In the case of `Cc1ccc(-c2noc(C3CCCN(S(=O)(=O)c4ccc5c(c4)OCCO5)C3)n2)cc1` (stereo unspecified), the survival is inactive: 113%.

Take `CN(C)CCNc1ncnc2c1cnn2-c1cccc(Cl)c1`: the survival was inactive: 80%.

With `COc1ccc(CNC(=O)C2CCCN(S(=O)(=O)c3cccc4nsnc34)C2)cc1` (stereo unspecified), the survival was inactive: 86%.

As to `Nc1c(C(=O)Nc2ccc(OC(F)(F)F)cc2)sc2nc(-c3ccncc3)ccc12`, the survival was inactive: 93%.

For `Cc1nn2c(=O)cc(COC(=O)Cc3ccccc3)nc2s1`, the survival was inactive: 80%.

With `CCOc1ccccc1-c1noc(CSc2nnc(-c3ccccc3)n2-c2ccc(F)cc2)n1`, the survival was inactive: 117%.

As for `Cn1nnnc1SCCCNCc1cc(Cl)ccc1OCc1ccc(F)cc1`, the survival was inactive: 80%.

Take `COC(=O)c1c(NC(=O)c2nc(SCc3ccc(F)cc3)ncc2Cl)sc2c1CCCC2`: the survival is inactive: 81%.

With `CC(=O)Nc1ccc(NC(=O)c2cccc(C)c2)cc1`, the survival was inactive: 107%.

For `CCC1CN(C(=O)N2CCC(C(=O)Nc3ccccc3F)CC2)c2ccccc2O1` (stereo unspecified), the survival is inactive: 84%.

For the compound `Cc1ccc(C)c(N2CCN(c3c(CN4CCCC4)c(=O)oc4ccccc34)CC2)c1`, the survival was inactive: 80%.

Consider `COc1ccccc1CNC(=O)c1ccc2nc(N3CCCCC3)sc2c1`, for which the survival is inactive: 122%.

Take `CCCC(=O)Nc1ccccc1OCc1cc(=O)n2cc(C)ccc2n1`: the survival is inactive: 53%.

Turning to `Cc1ccc(CCNC(=O)c2ccc3c(Cl)c4c(nc3c2)CCCC4)cc1`, the survival was inactive: 71%.

`O=C(C1CC(c2ccc(Cl)cc2)=NO1)N1CCCC1` (stereo unspecified): the survival was inactive: 112%.

With `Cc1ccc(-n2c(=O)cc(N3CCN(c4ccccc4Cl)CC3)[nH]c2=O)cc1`, the survival is inactive: 19%.

With `O=C(Nc1cccc(Cl)c1Cl)c1cc(S(=O)(=O)NCc2ccc3c(c2)OCO3)ccc1F`, the survival is inactive: 72%.

In the case of `CC(C)NC(=O)CN1CCN(c2ccc(F)cc2)CC1`, the survival was inactive: 108%.

For `CCc1ccc(S(=O)(=O)N(C(=O)c2ccncc2)c2ccc3oc(C)c(C(=O)OC)c3c2)cc1`, the survival is inactive: 74%.

Take `Cc1cc(C)c(/C=N/NC(N)=O)c(C)c1/C=N/NC(N)=O`: the survival was inactive: 108%.

With `COc1cccc(Cn2c(Oc3cc(C)cc(C)c3)nc3c2c(=O)n(C)c(=O)n3C)c1`, the survival was inactive: 60%.

Take `COc1ccc(CC(=O)N2CCc3cc(OC)c(OC)cc3C2COc2cc(C)cc(C)c2)cc1OC` (stereo unspecified): the survival is inactive: 128%.

Turning to `Cc1cc(C)cc(NC(=O)CCS(=O)(=O)c2cccc3nsnc23)c1`, the survival is inactive: 64%.

Regarding `CCOC(=O)c1ccc(N2C(=O)c3n[nH]c(-c4ccco4)c3C2c2ccc(C)cc2)cc1` (stereo unspecified), the survival is inactive: 32%.

With `CCOc1ccc(CCNC(=O)CN2CCN(Cc3ccc(Cl)cc3)C2=O)cc1OCC`, the survival was inactive: 86%.

Turning to `CC(=O)c1ccc(NS(=O)(=O)c2cccc(S(=O)(=O)c3ccc(Cl)cc3)c2)cc1`, the survival is inactive: 137%.

Take `Cc1cccc(C)c1Nc1nn2c(=O)c3cc4c(cc3nc2s1)OCO4`: the survival was inactive: 78%.

Consider `Cc1cccc(NC(=O)CSc2ccc(-c3ccccn3)nn2)c1`, for which the survival is inactive: 108%.

Turning to `CCc1ccc(N(CC)C(=O)c2cc3c(=O)oc4ccc(C)cc4c3s2)cc1`, the survival is inactive: 66%.

Consider `COc1cccc(NC(=O)C(=O)NCC(c2ccc3c(c2)OCO3)N2CCN(C)CC2)c1` (stereo unspecified), for which the survival is inactive: 60%.

As for `CCc1ccc(-c2cn3c(n2)sc2cc(C(=O)NC4CCCCC4)ccc23)cc1`, the survival was inactive: 98%.

On to `COc1cccc(-c2nc(S(=O)(=O)c3ccc(Cl)cc3)c(NCc3ccccc3)o2)c1`, for which the survival was inactive: 129%.

For the compound `COc1cccc(C(=O)Nc2cccc(OCc3cc(=O)n4c5c(sc4n3)CCCC5)c2)c1`, the survival was inactive: 73%.

Turning to `CC(=O)Nc1ccc(NS(=O)(=O)c2c(C(=O)N3CCC(C)CC3)c(C)n(C)c2C)cc1`, the survival is active: -3%.

Take `CCCCN(CC)CCCNC(=O)c1cc2c(=O)[nH]c3ccccc3c2n1C`: the survival is inactive: 79%.

On to `COc1ccc(NC(=O)CCCSc2nc(-c3ccco3)cc(C(F)(F)F)n2)cc1OC`, for which the survival was inactive: 52%.

As for `COCCNc1oc(-c2ccccc2)nc1S(=O)(=O)c1ccc(Br)cc1`, the survival is inactive: 55%.

In the case of `COc1ccc2oc(=O)c(C(=O)NCCc3c(C)[nH]c4ccc(F)cc34)cc2c1`, the survival was inactive: 77%.

With `COc1ccc2sc(N(Cc3cccnc3)C(=O)c3ccc4c(c3)OCCO4)nc2c1`, the survival is inactive: 73%.
